In all, about 360,000 compounds went through this assay and about 25,000 (6.9%) were called active. The shares of active, inactive and inconclusive entries below differ from those in the screen. The call rests on the fitted dose curve; in most records, active means well fitted inhibition curve with a large enough effect; inconclusive means small, poorly fitted or top-dose-only effect; inactive means flat fitted curve, though single readings scatter. Potencies of inconclusive entries are doubtful fits and often do not repeat.
These molecules were tested against Luciferin 4-monooxygenase (Photinus pyralis) (UniProt P08659) (assay: qHTS profiling assay for firefly luciferase inhibitor/activator using purifed enzyme and Km concentrations of substrates (counterscreen for miR-21 project)). Conditions: purified FLuc, luminescence inhibition; series mostly up to 57.5 µM; activity change, negative = inhibition: at the top concentration.
Summary of the method: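 Purified P. pyralis luciferase, 10 nM final, with Km-level 10 uM D-luciferin and 10 uM ATP in 50 mM Tris acetate pH 7.5, 10 mM Mg acetate, 0.01% Tween-20, 0.05% BSA; 6-point qHTS titration about 60 µM downward; luminescence read.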
Further: nearly all actives have a fitted effect of over 55% in size.
Potency means the concentration at half of the fitted maximal effect; tags describe the fitted curve by direction and shape.
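Wherever activity change, negative = inhibition is given: plate controls were vehicle for no effect and reference inhibitor for full effect.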

Chain of UniProt P08659 (P08659 whole entry, looked up): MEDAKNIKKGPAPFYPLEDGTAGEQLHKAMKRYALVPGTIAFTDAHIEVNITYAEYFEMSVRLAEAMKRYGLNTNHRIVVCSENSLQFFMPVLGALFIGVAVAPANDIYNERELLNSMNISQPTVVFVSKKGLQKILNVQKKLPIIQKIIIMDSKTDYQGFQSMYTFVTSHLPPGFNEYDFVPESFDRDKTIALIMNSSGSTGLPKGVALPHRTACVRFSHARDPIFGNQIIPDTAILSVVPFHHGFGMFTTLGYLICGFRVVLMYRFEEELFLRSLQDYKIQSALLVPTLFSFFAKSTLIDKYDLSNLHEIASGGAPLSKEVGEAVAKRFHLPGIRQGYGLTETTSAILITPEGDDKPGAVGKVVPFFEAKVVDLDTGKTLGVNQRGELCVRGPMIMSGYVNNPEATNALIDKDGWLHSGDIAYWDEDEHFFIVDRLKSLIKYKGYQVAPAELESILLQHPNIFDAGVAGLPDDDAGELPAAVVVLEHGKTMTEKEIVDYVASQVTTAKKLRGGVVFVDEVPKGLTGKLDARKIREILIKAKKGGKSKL

SMILES	Potency	activity change, negative = inhibition
Cn1cccc1CC(=O)N/N=C/C=C/c1ccco1	inconclusive: 26.9 µM [inhibitor, partial curve, poor fit]	
COc1cc(C(=O)N2CCN(C(=O)COc3ccc4ccccc4c3)CC2)cc(OC)c1OC	active: 10.7 µM	
c1ccc2c(c1)CCN(c1nc3ccccc3n3cnnc13)C2	inconclusive: 23.9 µM [inhibitor, partial curve]	
CCc1ccc(N=C2NC(=O)/C(=C/c3ccc(OCC(=O)O)c(OC)c3)S2)cc1	inconclusive: 9.53 µM [inhibitor, partial curve]	
Cc1ccc2nc3c(c(N)c2c1)CCN3c1ccccc1	active: 19 µM	
CCc1nnc(NC(=O)c2ccc3nc(CC)c(CC)nc3c2)s1	inconclusive: 16.9 µM [inhibitor, partial curve]	
Cc1ccc(C(=O)NC(=S)Nc2ccccc2C)cc1	active: 19 µM	
CC1=NN(c2nc(-c3ccc(C)cc3)cs2)C(=O)C1N=Nc1ccc2ccccc2c1 (stereo not given)	inconclusive: 26.9 µM [inhibitor, partial curve, poor fit]	
Cc1ccc(/C(N)=N/OC(=O)c2ccc(F)cc2)cc1	active: 4.78 µM	
COc1ccc(NC(=O)c2cc3nc(-c4ccc(Cl)c(Cl)c4)cc(C(F)(F)F)n3n2)c(OC)c1		inactive: 0.577%
O=C(CCc1nc2ccccc2s1)Nc1cccnc1	inconclusive: 37.9 µM [inhibitor, partial curve, poor fit]	
COc1ccc(N2CCN(C(=O)c3ccc(CNS(=O)(=O)c4ccc(C)cc4)cc3)CC2)cc1		inactive: 7.06%
O=C(CC1CCCC1)Nc1nc2ccccc2[nH]1	active: 9.53 µM	
COc1ccccc1N(CC(O)CN1CCC(C)CC1)S(=O)(=O)c1ccccc1 (stereo not given)		inactive: -0.995%
COc1cccc(NC(=O)CSc2nnc(-c3cccc(OC(C)C)c3)n2N)c1	inconclusive: 23.9 µM [inhibitor, partial curve]	
O=C1CCCCC/C1=N/Nc1ccc(OCc2ccccc2)cc1	inconclusive: 16.9 µM [inhibitor, partial curve]	
Cn1c(=S)n(/N=C/c2cccs2)c2ccccc21	inconclusive: 23.9 µM [inhibitor, partial curve, poor fit]	
COc1ccc(N=Nc2c(C)[nH][nH]c2=O)cc1	inconclusive: 33.8 µM [inhibitor, partial curve, poor fit]	
O=C1C2CC=CCC2C(=O)N1c1ccc(NCCc2ccccc2F)c([N+](=O)[O-])c1 (stereo not given)	inconclusive: 12 µM [inhibitor, partial curve]	
O=C(N/N=C/c1c(O)n(-c2ccccc2Cl)c(=O)c2ccccc12)C1COc2ccccc2O1 (stereo not given)		inactive: -18.4%
